For 112 molecules, z-score results are on record in PubChem BioAssay AID488969 (Vanderbilt High Throughput Screening Facility, 2010).

Each structure is given as a SMILES string. Over roughly 110,000 compounds, “z-score” has its median near -0.1; the highest 2% begin near 2. Some of the results follow. Active and inactive are the calls of the source.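 Rule for the calls: active = z-score in the third read window above 3 or below -3; inactive = the rest.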

The assay concerns the target Metabotropic glutamate receptor 8 (Rattus norvegicus) (UniProt P70579). As to the kind of experiment: rat mGluR8 modulators via GIRK flux, primary screen, cell-based, thallium flux, HTS (AID 488969). The following applies: HEK293 rat mGluR8, GIRK (G protein-gated inwardly rectifying potassium channel) thallium flux, FluoZin2; at 10 µM; stronger effect = higher value; submaximal glutamate (EC20) added with thallium.
Sequence of UniProt P70579 (P70579 whole entry, looked up): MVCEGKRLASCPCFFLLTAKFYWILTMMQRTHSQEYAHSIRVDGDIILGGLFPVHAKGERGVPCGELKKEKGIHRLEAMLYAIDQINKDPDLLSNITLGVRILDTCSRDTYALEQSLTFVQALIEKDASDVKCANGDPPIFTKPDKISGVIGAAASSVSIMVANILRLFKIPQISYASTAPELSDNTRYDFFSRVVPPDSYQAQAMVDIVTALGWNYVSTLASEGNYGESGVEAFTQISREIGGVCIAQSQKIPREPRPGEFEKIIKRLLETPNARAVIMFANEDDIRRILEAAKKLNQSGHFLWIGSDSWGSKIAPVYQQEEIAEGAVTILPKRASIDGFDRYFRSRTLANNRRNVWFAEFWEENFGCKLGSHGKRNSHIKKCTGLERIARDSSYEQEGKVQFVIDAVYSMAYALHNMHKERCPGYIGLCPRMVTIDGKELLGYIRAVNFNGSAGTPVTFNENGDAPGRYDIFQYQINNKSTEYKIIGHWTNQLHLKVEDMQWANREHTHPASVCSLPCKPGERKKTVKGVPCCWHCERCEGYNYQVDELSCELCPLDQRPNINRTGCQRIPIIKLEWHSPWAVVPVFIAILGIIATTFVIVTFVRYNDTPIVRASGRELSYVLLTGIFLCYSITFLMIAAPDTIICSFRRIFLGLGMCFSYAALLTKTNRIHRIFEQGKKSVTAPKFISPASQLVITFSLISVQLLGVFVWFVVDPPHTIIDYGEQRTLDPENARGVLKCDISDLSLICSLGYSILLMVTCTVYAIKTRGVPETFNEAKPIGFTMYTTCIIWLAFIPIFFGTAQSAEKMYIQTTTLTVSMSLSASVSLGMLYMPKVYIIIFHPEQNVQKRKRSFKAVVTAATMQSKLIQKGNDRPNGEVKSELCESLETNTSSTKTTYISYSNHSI
`O=C(COc1ccc(-c2nnco2)cc1)N1CCN(S(=O)(=O)c2ccccc2)CC1`: the z-score was -0.00876. `O=C(CC(Cc1ccccc1)c1ccco1)NC1CCCCC1` (configuration not stated) displayed a z-score of -0.295. Regarding `O=C(c1cc2cc(Br)cc(Br)c2oc1=O)N1CCCc2ccccc21`, the z-score was -0.473. In turn, `O=C(c1ccc(F)cc1)C1CCN(C(=O)NCc2ccccc2)CC1` had a z-score of 0.261. The molecule `COc1ccc(N/C=C(\C#N)c2ccc(OCCCF)cc2)cc1` came in with a z-score of -0.144.

With `CC(C)(C)NC(=O)COC(=O)/C=C/c1ccccc1[N+](=O)[O-]`, the z-score turned out to be 0.706. As for `Cc1cccc(-n2c(SCc3ccc(C#N)cc3)nnc2-c2c[nH]c3ccccc23)c1`, the z-score was -0.436. In turn, `Cc1ccc(OC(C)C(=O)N2CCCc3ccccc32)cc1` (configuration not stated) gave a z-score of -0.266. `CN(C)c1nc(N)nc(CSc2n[nH]c(-c3ccccc3)n2)n1` gave a z-score of -0.00289.

Regarding `CN(C)C(=O)Cn1cnc2c(cnn2-c2ccccc2Cl)c1=O`, the z-score was -0.00226.

Regarding `CCSc1nnc(-c2ccncc2)n1Cc1ccccc1`, the z-score is -0.0653.

In turn, `O=C(Nc1cccc2ccccc12)c1onc2c1CCCC2` came in with a z-score of -0.185. In the case of `Cc1ccc(-n2c(-c3ccc(Br)cc3)c[n+]3c2CCc2ccc4cccnc4c2-3)cc1`, the z-score was active: 4.86. `CCN1CCN(CC(O)COc2ccc(C(C)=O)cc2)CC1` (configuration not stated) yielded a z-score of 0.228. Molecule `Cc1cc2n(c(=O)c1C#N)CCCN2c1cccc(Cl)c1` came in with a z-score of 0.112. As for `O=C(O)/C=C\C(=O)N1CCc2ccccc21`, the z-score is -0.345. Next, `Cc1ccc(C(=O)Nn2cnnc2)cc1[N+](=O)[O-]`: -0.159; `CCOC(=O)c1oc2ccccc2c1NC(=O)c1ccccc1OC`: -0.0477. The molecule `O=C(NCCN1CCCCC1)/C(=N\O)c1ccccc1` had a z-score of 0.457. Next, `O=C(CSCc1ccccc1)Nc1cccc(C(=O)Nc2ccccc2C(=O)O)c1`: -0.568. The molecule `COc1ccc(C2C(C(=O)Nc3ccccc3)=C(C)Nc3nc(CCCO)nn32)cc1` (configuration not stated) returned a z-score of -0.432. `O=C(NCCc1ccccc1)N1c2ccccc2Sc2ccccc21` had a z-score of -0.298. `O=C(Nc1ccc(Cl)cn1)C1CCCN1S(=O)(=O)c1cccc2ccccc12` (configuration not stated) registered a z-score of -0.368. In turn, `CCOc1ccc2nc(NC(=O)/C=C/c3ccc4c(c3)OCO4)sc2c1` registered a z-score of -0.409. As for `Cc1cc(=O)oc2cc(Oc3ccc([N+](=O)[O-])cc3C(F)(F)F)ccc12`, the z-score was 0.15.

For the molecule `COc1ccc(C/C(N)=N/OC(=O)Cc2ccccc2)cc1OC`, the z-score is -0.185.

`O=c1cc(N2CCc3ccccc3C2)[nH]c(=O)n1-c1ccc(Cl)cc1` showed a z-score of -0.272. Next, `COc1cccc2[nH]c3c(N4CCCC(C)C4)ncnc3c12` (configuration not stated): -0.105; `Cc1ccc(C(=O)N/N=C/c2nc3ccccc3n2C)cc1`: -0.494; `CCc1nc2ccccc2n(CCOCCOCCn2c(=O)c(CC)nc3ccccc32)c1=O`: -1.86.

For `N#Cc1ccccc1NC(=O)CSc1nnc(-c2ccc(F)cc2)n1-c1ccccc1`, the z-score is -0.102. For `COCCCNC(=S)NC1CC2CCCC(C1)N2Cc1cccs1` (configuration not stated), the z-score is -0.0623. For `CCOC(=O)Cc1csc(NC(=O)CSc2nnnn2-c2ccc(C)cc2C)n1`, the z-score was found to be 0.498. Then `O=C(Oc1ccc2c(c1)OCO2)c1cccs1`, with -0.0608; and `Cc1ccc(SCc2ccc(C(=O)Nc3ccccc3C(=O)NC(C)C)cc2)cc1`, with -0.377. Then `Cc1c(C(=O)Nc2ccccc2[N+](=O)[O-])csc1-c1ccccc1`, with -0.152.

In the case of `CCOC(=O)c1ccccc1NC(=O)CC(C)CC(=O)O` (configuration not stated), the z-score came out at 0.0768. Molecule `COc1ccc(C(=O)NN2C(=O)C3C4C=CC(O4)C3C2=O)cc1` (configuration not stated) registered a z-score of -0.0264. `Cn1c(SCC(=O)c2ccccc2)nnc1-c1ccc(O)cc1` displayed a z-score of 0.0183. As to `Cc1[nH]c2ccc(C(=O)O)cc2c1C`, the z-score is 0.917.

Molecule `Brc1ccc(CSc2nccn2-c2ccccc2)cc1` showed a z-score of -0.198. Take `Cc1cc2n(n1)C(c1sccc1C)Nc1c(C)cccc1-2` (configuration not stated): the z-score was 0.912.

`CN(CC(=O)Nc1ccc(Cl)cc1)S(=O)(=O)c1cccc2cccnc12` displayed a z-score of -0.797. With `Cc1c(C(=O)N/N=C/c2ccccc2)sc(=S)n1C`, the z-score is -0.243.

As for `CCN(CC)S(=O)(=O)c1ccc(NC(=O)Cn2c(=O)sc3ccccc32)cc1`, the z-score is -0.718. For the molecule `COc1ccc(NC(=O)C2CCN(S(=O)(=O)c3ccc(OC)c(OC)c3)CC2)cc1`, the z-score was -0.0554.

As to `COc1ccc(NC(=O)N2CCn3c2nc2ccccc23)cc1`, the z-score is 0.0773. In turn, `Cc1nn(-c2ccccc2)c(C)c1/C=N/NC(=O)CSc1nc2ccccc2c(=O)n1-c1ccccc1` returned a z-score of -2.12.

Take `CCOc1ccccc1C(=O)NCC(=O)OCC(=O)N1C(C)CCCC1C` (configuration not stated): the z-score is -1.16. `Cc1c(NC(=O)C(C)OC(=O)c2cc(Cl)nc(Cl)c2)c(=O)n(-c2ccccc2)n1C` (configuration not stated) came in with a z-score of 0.0979. As for `Cc1cccc(OCC(=O)Nc2cccc(C(=O)NCC(C)C)c2)c1`, the z-score is -0.265.

The molecule `Cc1cccc(-c2noc(CSc3ccccc3)n2)c1` came in with a z-score of -0.319. As for `CC(CC(=O)NCc1ccccc1)C1CCCO1` (configuration not stated), the z-score came out at 0.956. Molecule `CCN(CCCNC(=O)CCNC(=O)Cn1ccc2ccccc2c1=O)c1ccccc1` returned a z-score of -0.46. As for `CCC(=O)N1CCc2cc(S(=O)(=O)NC(C(=O)N3CCc4ccccc4C3)C(C)C)ccc21` (configuration not stated), the z-score was -1.08. The molecule `O=C(CN1CCN(c2cccc(Cl)c2)CC1)N1CCCC1` returned a z-score of 0.275. In turn, `CCC(CC)C1C(C#N)=C(N)Oc2n[nH]c(C)c21` (configuration not stated) had a z-score of -1.97.

Molecule `O=C(Nc1sc2c(c1C(=O)NCC1CCCO1)CCCC2)c1cccs1` (configuration not stated) showed a z-score of -0.388. Molecule `O=C(CCC(=O)N1CCc2ccccc2C1)N1CCN(S(=O)(=O)c2ccccc2)CC1` showed a z-score of -0.356. In turn, `Cc1ccc(NC(=O)COc2ccc(-n3cnnn3)cc2)cc1C` registered a z-score of -0.492. `CCCCCCCCOC1OC(CO)C(O)C(O)C1NC(C)=O` (configuration not stated) came in with a z-score of -0.145. Then `COc1ccccc1NC(=O)c1ccc(NS(=O)(=O)c2cccc3cccnc23)cc1`, with -0.29. For `C=CCOc1ccc(CNc2nccs2)cc1`, the z-score is -0.245. `O=C(COC(=O)C1CCC1)NCc1ccccc1Cl` registered a z-score of 0.111. `Cc1c(N2C(=O)/C(=C\c3cccc4ccccc34)SC2=S)c(=O)n(-c2ccccc2)n1C` came in with a z-score of 0.63. The molecule `O=C(Nc1ccc2c(c1)OCO2)C1CC(c2ccc(Cl)cc2)=NO1` (configuration not stated) gave a z-score of -0.0412. The molecule `CC1Cc2ccccc2N1S(=O)(=O)c1ccc2c(c1)n(C)c(=O)c(=O)n2C` (configuration not stated) displayed a z-score of -0.427. Regarding `COc1ccccc1S(=O)(=O)Nc1ccc(-c2nnc3n2CCCCC3)cc1`, the z-score was 0.00148. Then `CCOCCCNC(=O)C(NC(=O)CNC(=O)c1ccccc1)c1ccc(C)cc1` (configuration not stated), with -0.197.

Molecule `COc1ccc(CCNC(=O)CCNS(=O)(=O)c2cccc3nonc23)cc1OC` yielded a z-score of -0.484. With `Cc1cccc2sc(N(CCCN(C)C)C(=O)CCc3ccccc3)nc12`, the z-score was -0.976. Consider `CN(Cc1cccs1)C(=O)CCc1ccc(S(=O)(=O)N2CCOCC2)cc1`, for which the z-score worked out at 0.00198. In the case of `Cc1ccccc1Cn1c(-c2cncs2)nc2ccccc21`, the z-score was -2.34. Next, `Cc1ccc2nc(SCCC(=O)O)cc(C)c2c1`: -0.26; `O=C1CC(=C(c2ccccc2)c2ccccc2)C(=O)N1CCN1CCN(c2cccc(Cl)c2)CC1`: -0.173. Molecule `CCOC(=O)c1[nH]c(=O)[nH]c1CSc1nc(C)cc(C)n1` returned a z-score of 0.156. In turn, `Cc1ccccc1NC(=S)N(CCN(C)C)C(C)c1ccco1` (configuration not stated) gave a z-score of 0.0508. `Cc1ccc2[nH]c(=O)c(C3C(C#N)=C(N)Oc4c3ccc3cccnc43)cc2c1` (configuration not stated) had a z-score of -1.28. In the case of `Oc1ccc(/C=N/Nc2nc(-c3ccc(Cl)cc3)cc(C(F)(F)F)n2)cc1`, the z-score was -0.242. The molecule `CCCC(c1nnnn1C(C)(C)CC)N(Cc1ccco1)Cc1cc2ccc(OC)cc2[nH]c1=O` (configuration not stated) came in with a z-score of -0.316. `O=C(COc1ccc2ccccc2c1CN1CCOCC1)N1CCc2ccccc21` had a z-score of -0.374. `COc1ccc(/C=N/NC(=S)Nc2cccc(C(=O)O)c2)cc1OC`: the z-score came to 0.163.

`COCC(=O)Nc1nnc(-c2cccs2)s1` came in with a z-score of 0.0659.

Molecule `O=C(NC1CCCC1)c1ccccc1-c1nc2ccccc2[nH]1` gave a z-score of 0.586. For `Cc1ccc(CNC(=O)c2sc3ccc(S(=O)(=O)N4CCCCC4)cc3c2N)cc1`, the z-score was -0.557.

Take `Cc1ccccc1C(=O)N1CCC(C(N)=O)CC1`: the z-score was -0.33.

For the molecule `CCc1ccccc1N/C(=N\S(=O)(=O)c1ccccc1)C(F)(F)F`, the z-score is -1.38.

Molecule `C=CCOn1c(C)c(C(C)=O)c2c3nonc3ccc21` yielded a z-score of -1.21.

In the case of `CCOC(=O)CC(=O)Nc1ccccc1C(=O)O`, the z-score was determined as 0.215. In turn, `COc1ccccc1Nc1nnc(C)c(=O)[nH]1` displayed a z-score of -0.361. With `CCC(=O)N1CCc2cc(Br)cc(S(=O)(=O)C3(C(=O)OC)CC3)c21`, the z-score is -0.206. `CCN1C(=O)c2cccc3c(S(=O)(=O)Nc4ncccc4C)ccc1c23` returned a z-score of 0.148. For `COCCNC(=O)C(=O)N/N=C/c1ccccc1C(F)(F)F`, the z-score is -0.508.

`Clc1ccc(Cn2cc(/C=N/n3cnnc3)c3ccccc32)c(Cl)c1` gave a z-score of -0.0895. `CC(C)(C)n1ncc2c(=O)n(CC(=O)NCc3ccccc3Cl)cnc21`: the z-score was 1.14. `Cc1nnc(SCC(=O)N2CCC(c3noc4ccc(F)cc34)CC2)s1`: the z-score was -0.216. Consider `C=CCn1c(=S)[nH]c2nc3c(cc2c1=O)COC(C)(C)C3`, for which the z-score turned out to be 1.16. Molecule `CCOC(=O)c1cc[n+](CC(=O)c2ccc(F)cc2)cc1` returned a z-score of -0.651.

As to `CCNc1nc(NC(C)C)nc(OCCOC(=O)c2ccccc2)n1`, the z-score is -0.946. `COc1ccc(NS(=O)(=O)c2ccc(N3CCCC3)c(NC(=S)Nc3cccc(S(=O)(=O)N(C)C)c3)c2)cc1` had a z-score of -0.0112. `CC(c1ccco1)N(C(=O)c1ccc(S(=O)(=O)N2CCCCC2)cc1)c1ccccn1` (configuration not stated) had a z-score of -0.0399.

For `CCOC(=O)CNC(=S)N(Cc1cccs1)C1CCCCC1`, the z-score was -1.11. Molecule `O=C(NCc1ccccc1)c1noc2c1CCCCC2` had a z-score of -0.0478. Molecule `COc1cccc(NCc2ccc([N+](=O)[O-])s2)c1` showed a z-score of -0.0495. In turn, `COc1ccc(-c2csc(N3CCC(c4ccccc4)C3)n2)cc1` (configuration not stated) yielded a z-score of -0.0339. Consider `CCOc1ccc2nc(NC(=O)C(NS(=O)(=O)c3cccs3)C(C)C)sc2c1` (configuration not stated), for which the z-score is 0.454. Molecule `O=C(O)c1cccc(S(=O)(=O)Nc2ccc3oc(=O)sc3c2)c1` returned a z-score of 0.0712. `O=c1[nH]c(CN2CCN(c3ccc(F)cc3)CC2)nc2ccccc12` returned a z-score of -0.12.

Regarding `COC(=O)c1cc(Br)c(=O)n(Cc2cccnc2)c1`, the z-score was -0.555. The molecule `CN(C)c1ccc(-n2cccc2/C=N/n2cnnc2)cc1` displayed a z-score of -0.246. Turning to `CC(NC(=O)CN1CCN(c2ncccn2)CC1)c1ccc(F)cc1` (configuration not stated), the z-score was determined as 0.356.

The molecule `CCOC(=O)N1CCN(C(=O)CN(c2cccc(C(F)(F)F)c2)S(C)(=O)=O)CC1` showed a z-score of -1.25.
